# From the supplement of paper PMC8728848
# This is one part of the list.
# B1: DC-Sign (Homo sapiens), Q9NNX6 (protein)
# chain: MSDSKEPRLQQLGLLEEEQLRGLGFRQTRGYKSLAGCLGHGPLVLQLLSFTLLAGLLVQVSKVPSSISQEQSRQDAIYQNLTQLKAAVGELSEKSKLQEIYQELTQLKAAVGELPEKSKLQEIYQELTRLKAAVGELPEKSKLQEIYQELTWLKAAVGELPEKSKMQEIYQELTRLKAAVGELPEKSKQQEIYQELTRLKAAVGELPEKSKQQEIYQELTRLKAAVGELPEKSKQQEIYQELTQLKAAVERLCHPCPWEWTFFQGNCYFMSNSQRNWHDSITACKEVGAQLVVIKSAEEQNFLQLQSSRSNRFTWMGLSDLNQEGTWQWVDGSPLLPSFKQYWNRGEPNNVGEEDCAEFSGNGWNDDKCNLAKFWICKKSAASCSRDEEQFLSPAPATPNPPPA
# What was measured:
# Assay in all cases: glycan array binding signal (z-score within array); higher = stronger binding
# Conditions in all cases: glycan notation: IUPAC condensed, linker removed
# [1] = target: Fuc(a1-3)[Gal3S(b1-4)]GlcNAc
# Outline: (§1)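 The binding signal is a Z-score computed within each array. Data were drawn from 3228 arrays in the Consortium for Functional Glycomics database, restricted to those with a known protein sequence. Scores were averaged over arrays of the same protein sequence at different concentrations or buffers, and over linkers, and negative values can be taken as non-binding.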
# [2] = target: Fuc(a1-3)[Gal3S(b1-4)]GlcNAc6S
# Outline: as §1
# [3] = target: Fuc(a1-3)[GalNAc(b1-4)]GlcNAc
# Outline: as §1
# [4] = target: Fuc(a1-3)[GalNAc(b1-4)]GlcNAc6S
# Outline: as §1
# [5] = target: Fuc(a1-4)GlcNAc
# Outline: as §1
# [6] = target: Fuc(b1-3)GlcNAc
# Outline: as §1
# [7] = target: Gal(a1-2)Gal
# Outline: as §1
# [8] = target: Gal(a1-3)Gal
# Outline: as §1
# [9] = target: Gal(a1-3)Gal(b1-3)GlcNAc
# Outline: as §1
# [10] = target: Gal(a1-3)Gal(b1-3)GlcNAc(b1-2)Man
# Outline: as §1
# [11] = target: Gal(a1-3)Gal(b1-3)GlcNAc(b1-2)Man(a1-3)[Gal(a1-3)Gal(b1-3)GlcNAc(b1-2)Man(a1-6)]Man(b1-4)GlcNAc(b1-4)GlcNAc
# Outline: as §1
# [12] = target: Gal(a1-3)Gal(b1-3)GlcNAc(b1-3)GalNAc
# Outline: as §1
# [13] = target: Gal(a1-3)Gal(b1-3)GlcNAc(b1-6)GalNAc
# Outline: as §1
# [14] = target: Gal(a1-3)Gal(b1-3)[Fuc(a1-4)]GlcNAc(b1-2)Man(a1-3)[Gal(a1-3)Gal(b1-3)[Fuc(a1-4)]GlcNAc(b1-2)Man(a1-6)]Man(b1-4)GlcNAc(b1-4)GlcNAc
# Outline: as §1
# [15] = target: Gal(a1-3)Gal(b1-4)Glc
# Outline: as §1
# [16] = target: Gal(a1-3)Gal(b1-4)GlcNAc
# Outline: as §1
# [17] = target: Gal(a1-3)Gal(b1-4)GlcNAc(b1-2)Man
# Outline: as §1
# [18] = target: Gal(a1-3)Gal(b1-4)GlcNAc(b1-2)Man(a1-3)[Gal(a1-3)Gal(b1-4)GlcNAc(b1-2)Man(a1-6)]Man(b1-4)GlcNAc(b1-4)GlcNAc
# Outline: as §1
# [19] = target: Gal(a1-3)Gal(b1-4)GlcNAc(b1-3)GalNAc
# Outline: as §1
# [20] = target: Gal(a1-3)Gal(b1-4)GlcNAc(b1-6)GalNAc
# Outline: as §1
# [21] = target: Gal(a1-3)Gal(b1-4)[Fuc(a1-3)]GlcNAc
# Outline: as §1
# [22] = target: Gal(a1-3)Gal(b1-4)[Fuc(a1-3)]GlcNAc(b1-2)Man(a1-3)[Gal(a1-3)Gal(b1-4)[Fuc(a1-3)]GlcNAc(b1-2)Man(a1-6)]Man(b1-4)GlcNAc(b1-4)GlcNAc
# Outline: as §1
# [23] = target: Gal(a1-3)GalNAc
# Outline: as §1
# [24] = target: Gal(a1-3)[Gal(a1-4)]Gal(b1-4)GlcNAc
# Outline: as §1
# [25] = target: Gal(a1-4)Gal(b1-3)GlcNAc(b1-2)Man(a1-3)[Gal(a1-4)Gal(b1-3)GlcNAc(b1-2)Man(a1-6)]Man(b1-4)GlcNAc(b1-4)GlcNAc
# Outline: as §1
# [26] = target: Gal(a1-4)Gal(b1-4)Glc
# Outline: as §1
# [27] = target: Gal(a1-4)Gal(b1-4)GlcNAc
# Outline: as §1
# [28] = target: Gal(a1-4)Gal(b1-4)GlcNAc(b1-2)Man(a1-3)[Gal(a1-4)Gal(b1-4)GlcNAc(b1-2)Man(a1-6)]Man(b1-4)GlcNAc(b1-4)GlcNAc
# Outline: as §1
# [29] = target: Gal(a1-4)Gal(b1-4)GlcNAc(b1-3)Gal(b1-4)Glc
# Outline: as §1
# [30] = target: Gal(a1-4)GlcNAc
# Outline: as §1
# [31] = target: Gal(a1-6)Glc
# Outline: as §1
# [32] = target: Gal(b1-2)Gal
# Outline: as §1
# [33] = target: Gal(b1-3)Gal
# Outline: as §1
# [34] = target: Gal(b1-3)Gal(b1-4)GlcNAc
# Outline: as §1
# [35] = target: Gal(b1-3)GalNAc
# Outline: as §1
# [36] = target: Gal(b1-3)GalNAc(a1-3)[Fuc(a1-2)]Gal(b1-4)Glc
# Outline: as §1
# [37] = target: Gal(b1-3)GalNAc(a1-3)[Fuc(a1-2)]Gal(b1-4)GlcNAc
# Outline: as §1
binder,measurement,setting,value
B1,glycan array binding signal (z-score),[1],-0.138
same,glycan array binding signal (z-score),[2],-0.13
same,glycan array binding signal (z-score),[3],0.283
same,glycan array binding signal (z-score),[4],1.43
same,glycan array binding signal (z-score),[5],-0.011
same,glycan array binding signal (z-score),[6],0.158
same,glycan array binding signal (z-score),[7],-0.183
same,glycan array binding signal (z-score),[8],-0.208
same,glycan array binding signal (z-score),[9],-0.186
same,glycan array binding signal (z-score),[10],-0.191
same,glycan array binding signal (z-score),[11],-0.178
same,glycan array binding signal (z-score),[12],-0.173
same,glycan array binding signal (z-score),[13],-0.178
same,glycan array binding signal (z-score),[14],-0.018
same,glycan array binding signal (z-score),[15],-0.198
same,glycan array binding signal (z-score),[16],-0.165
same,glycan array binding signal (z-score),[17],-0.192
same,glycan array binding signal (z-score),[18],-0.168
same,glycan array binding signal (z-score),[19],-0.172
same,glycan array binding signal (z-score),[20],-0.135
same,glycan array binding signal (z-score),[21],-0.154
same,glycan array binding signal (z-score),[22],-0.165
same,glycan array binding signal (z-score),[23],-0.169
same,glycan array binding signal (z-score),[24],-0.089
same,glycan array binding signal (z-score),[25],-0.131
same,glycan array binding signal (z-score),[26],-0.217
same,glycan array binding signal (z-score),[27],-0.167
same,glycan array binding signal (z-score),[28],-0.171
same,glycan array binding signal (z-score),[29],-0.187
same,glycan array binding signal (z-score),[30],-0.192
same,glycan array binding signal (z-score),[31],-0.193
same,glycan array binding signal (z-score),[32],-0.177
same,glycan array binding signal (z-score),[33],-0.191
same,glycan array binding signal (z-score),[34],-0.083
same,glycan array binding signal (z-score),[35],-0.179
same,glycan array binding signal (z-score),[36],-0.149
same,glycan array binding signal (z-score),[37],-0.152
